Measured values taken from the supplement of paper PMC4466236.
Over roughly 33,000 sequences, “E-score (dimensionless, -0.5 to 0.5)” has its median near -0.058; the highest 2% begin near 0.35. Some of the results follow.

system: MvaT; assay: PBM 8-mer E-score (mean of HK and ME arrays) (E-score (dimensionless, -0.5 to 0.5)); higher = stronger relative binding preference; most listed sequences are background and not binding sites
Method in brief: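 Reported values are rank-based E-scores, taken as the mean of two universal arrays and parsed with a custom script. Each 8-mer score falls between -0.5 and 0.5. The arrays, ME and HK, were double-stranded 60-mers with a constant 25-mer primer region and a variable 35-mer region covering all 8-mers. They were probed, by an earlier protocol, with full-length P. aeruginosa MvaT carrying an N-terminal glutathione S-transferase fusion.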

Sequence	PBM 8-mer E-score
CGGCCACA	-0.266
CGCAATTC	0.186
ACGCGTAA	-0.00986
AGGCTCAA	-0.283
ATGAATGG	0.0285
ACCCGGAT	-0.142
CGGACCAG	-0.215
ACACGGCG	-0.119
CAAAGCGC	-0.133
GGCTATAA	0.151
AGATAGAT	0.152
ATCCTTAG	-0.00498
ATCTCACG	-0.105
ATCCCGCC	-0.0462
ACCACAGG	-0.115
AACCTCAT	-0.0903
GCAACAGA	-0.126
AAGTGAAT	0.0625
CAGTCTTC	-0.152
TAGTTACA	0.247
CAGAGGCG	-0.168
GTTCCAAC	0.0038
ACTCGCTG	-0.0519
ACCTCAGG	-0.21
ACCAATCG	0.0603

Sequence	PBM 8-mer E-score
AGAATGAC	0.0631
CACCCGGC	-0.0876
GTCCGGAC	0.0224
CTCGCCAG	-0.097
CTCTACCA	-0.0928
AGTAGTGA	0.21
AGAGGGAT	-0.168
AGGGAGGG	-0.265
GGCTATCA	-0.0897
CACTCGAA	-0.142
AAGAGTTG	-0.0631
AGTATGCA	0.192
GCGGACAA	0.0659
AAAAATAC	0.158
ACAAACTC	0.14
ACCTACGG	-0.191
CGGAAGAG	-0.217
GGATATGA	0.0688
GTGAACTA	0.111
CTCTCGAA	-0.0527
AAGTCGGA	-0.0793
AATCAGAT	-0.0177
TGCCGCCA	-0.142
GAAGGAAC	-0.0975
GAATTTCC	0.0596

Sequence	PBM 8-mer E-score
ATCAGGCC	-0.224
GAGCGCAC	-0.228
GTCATATA	0.282
CGTATACG	0.0857
AACTAGAC	0.102
AGCTCGAG	-0.0655
ATGTGACG	-0.101
ACCGTTCA	0.0636
ACGCAGAC	-0.0362
ATGGGTGG	-0.0367
ACTCACAT	0.0706
ATTATTCC	0.341
GTGCAAGA	0.082
GTTAACCA	0.122
CACAGTAA	0.133
GCCCGCCC	-0.143
CTTTAAGA	0.0625
GAGCGACA	-0.192
GCTGAGCA	-0.285
GAAAGTGC	0.0954
CTGGTTGA	-0.124
GGAAGCTA	-0.176
AGTCCGGA	0.0416
AGTAGCGA	-0.0692
CCAATAAA	0.302

Sequence	PBM 8-mer E-score
GACCTGTA	-0.0779
AAAATAAT	0.422
CGGTATGC	-0.141
AGACACAG	-0.141
CACCACGA	-0.0567
ACGGCATG	-0.217
CAGTATGA	0.188
CCCCGTCG	-0.33
AGACACAT	0.105
AAAAGAAC	0.145
CTCGATAA	-0.0933
ATAAAGGA	0.0948
GTAGCTGA	-0.0774
CGAAGGTA	-0.284
GCACAGAC	-0.17
ACATTTGG	-0.00902
CCATGACG	-0.191
GCCGGAGA	-0.282
CTGCGCTA	-0.173
AGACGAGC	-0.183
GCCTCCAA	-0.166
AACAGGAG	-0.0255
CGCGTGAC	-0.161
GTGGTACA	-0.00692
TCGCGAAA	-0.0473

Sequence	PBM 8-mer E-score
TACGAGAA	0.0165
CCGCATCG	-0.289
TGAAATAA	0.314
CTAAAATC	0.148
GCTTTTAA	0.267
CTGGTCTA	-0.126
GCCGACTA	-0.209
AGTAGAAT	0.163
ACCGCTTG	-0.106
CAACGGGA	0.0055
CGACATCC	-0.109
ACGTTCTA	0.178
AAGGCAAA	0.0855
AGATTTCC	-0.0424
ATGACCTA	-0.139
CGCGCCCC	-0.273
CCGTCATC	-0.14
ATGATTCA	0.153
AGATTAGA	0.188
GAGCTGCA	-0.107
AAGTTCGT	0.181
CATCCGCC	-0.163
AGGCTGGA	-0.135
ACACGATC	-0.0432
ACTAATCT	0.197

Sequence	PBM 8-mer E-score
CGCCAGAC	-0.212
ACAAGTAA	0.317
CAGACTCC	-0.24
CTTTATAC	0.264
GAATACCC	-0.0297
ACGTGACC	-0.122
GTGAGAGA	-0.0566
CCAGGTTA	-0.138
GTTCAAAA	-0.0446
GAATCGGC	-0.213
CAAAGACC	-0.0793
CACCCATA	0.131
GATGGACA	-0.218
ACTCTCGG	-0.108
TCCGAAAA	-0.0589
ACCCTGAG	-0.208
GACGCACA	-0.017
ATAACTAG	0.27
CTATGATC	-0.0064
ACACCTCA	0.0382
ACCGGCTC	-0.3
CCTCGAGG	-0.23
CTTCCGGC	-0.257
CTCCGCAA	-0.127
AGAAGATA	0.0783

Sequence	PBM 8-mer E-score
CGTTTATA	0.34
CCATTAAA	0.329
CACTGGCC	-0.258
AGCTTCGG	-0.222
ATGATTGC	-0.0682
CACTATCG	0.154
TGATGGCA	-0.146
CGATACTA	0.0825
CATCTGAG	-0.0797
AGGGGTGC	-0.279
AGGCACAC	-0.171
GATAAGCA	-0.0813
ACGCAGCA	-0.145
AAACCACA	0.121
AGAGCTTC	-0.2
AGGTCCTG	-0.144
CGCTCGAA	-0.112
GACAAGTA	0.143
ACAAACCG	0.0425
CACTCAAC	-0.0191
GGTGGATA	-0.0615
TAGATAAA	0.147
